Laboratory results from PubChem BioAssay AID760 (NMMLSC, 2007).
Out of some 190,000 compounds screened, about 360 (0.19%) were called active. This list was built around the results that the source calls inconclusive (neither active nor inactive); the mix of calls is not that of the screen.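 How the source made its calls: active means GTP binding activity at least 20 points away from 100%, either lowered or raised; inconclusive means signal likely due to the compound's own green fluorescence; inactive means the rest.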

target: Ras-related protein Rab-2A (Canis lupus familiaris) (UniProt P61105); assay: Rab2 wt fluorescent GTP binding changes, either direction – biochemical, dog, bead-based flow cytometry, multiplex, primary screen (AID 760); conditions: GST-Rab2 wt beads, Bodipy-GTP binding, at 10 µM;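 further: 0% = beads with excess unlabeled GTP and 100% = no-compound control corrected for plate trend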

Structure (SMILES) | GTP binding activity
O=C(COC(=O)/C=C/c1cccc(Cl)c1)NCCC1=CCCCC1 | inconclusive: 91%
N#Cc1cc2ccc(N3CCOCC3)cc2cc1C#N | inconclusive: 103%
C=CCc1cccc(CNc2c(C)cc(C)cc2C)c1O | inactive: 99%
Cn1c(NC(=O)Cc2cccc3ccccc23)cc(=O)n(C)c1=O | inconclusive: 91%
Cn1c(SCC(=O)Nc2cc(C(C)(C)C)nn2-c2ccccc2)nc2ccccc21 | inconclusive: 212%
O=C(O)c1ccc(/C=C/c2nc3sc4c(c3c(=O)[nH]2)CCC4)cc1 | inconclusive: 85%
CC(=O)c1ccc(NC(=O)C(C)Nc2ccc(Cl)cc2)cc1 (stereo not given) | inactive: 97%
O=S1(=O)N=C(N(CCO)/N=C/C=C/c2ccccc2)c2ccccc21 | active: 72%
COc1ccc2nc(NC(=O)c3ccc(NS(=O)(=O)c4cccs4)cc3)sc2c1 | inconclusive: 88%
COc1ccc(Cl)cc1NC(=S)N(Cc1cccnc1)Cc1ccco1 | inconclusive: 95%
O=C(C[n+]1cccc(CNC(=O)c2ccc(OC(F)F)cc2)c1)Nc1ccccc1Cl | inconclusive: 220%
COc1nnc(-c2ccccc2)s1 | inconclusive: 98%
COc1ccc2nc(SCC(=O)NCC(F)(F)F)[nH]c2c1 | inactive: 99%
COCCCNC(=O)c1ccc2c(c1)CCN2S(C)(=O)=O | inconclusive: 92%
O=c1ccn(-c2cccc(C(F)(F)F)c2)nc1-c1ccn(-c2cccc(Cl)c2)n1 | inactive: 102%
COC(=O)/C=C1\NCCSC1=O | inconclusive: 112%
O=C(CCCN1C(=O)/C(=C/c2cccs2)SC1=S)NNC(=O)c1ccccc1O | inconclusive: 86%
C=CCN(Cc1cc(OC)ccc1OC)S(=O)(=O)N(C)C | inconclusive: 104%
COc1ccc(N=C2SC(C(=O)Nc3ccc(OC)cc3)CC(=O)N2CCN2CCOCC2)cc1 (stereo not given) | inconclusive: 99%
CCCC1Cc2c(sc3ncnc(N)c23)CO1 (stereo not given) | inconclusive: 88%
COc1ccc(CC(=O)N[C@@H](CCSC)c2nc3ccccc3[nH]2)cc1 | inactive: 99%
Cc1ccc(NC(=O)Nc2cccc(C(F)(F)F)c2)nc1 | inactive: 103%
CC1N(C)c2cc(NC(=O)c3cccs3)c(P(=O)(Nc3ccc([N+](=O)[O-])cc3)N3CCOCC3)cc2C1(C)C (stereo not given) | inactive: 100%
COC(=O)c1c(C)nc(C)c(C(=O)OC)c1-c1cccs1 | inconclusive: 139%

Structure (SMILES) | GTP binding activity
COc1ccc(Nc2cc(C(=O)NCCCN3CCN(C)CC3)c3ccccc3n2)cc1OC | inconclusive: 156%
NC(=O)c1oc2ccccc2c1NC(=O)c1ccc(F)cc1 | inconclusive: 99%
CC1(C)C2CCC1(CS(=O)(=O)Nc1ccccc1)C(=O)C2 (stereo not given) | inactive: 96%
CCc1cc2ccc(C)cc2nc1SCC(=O)Nc1cc(OC)c(OC)cc1C(=O)O | inconclusive: 96%
Cn1nnnc1SCC(=O)Nc1cc(C(C)(C)C)nn1-c1ccccc1 | inconclusive: 105%
CNC(=O)CSc1nc2c([nH]c3ccccc32)c(=O)n1CCOC | inconclusive: 109%
Cc1cc(NC(=O)Cn2c(=O)c3c(ncn3CCC(C)C)n(Cc3ccccc3)c2=O)no1 | inconclusive: 108%
FC(F)(F)c1cc(-c2ccc(Cl)cc2)nc2ncnn12 | inconclusive: 106%
c1ccc(C(c2ccccc2)N2CCN(c3nc4ccccc4n4cnnc34)CC2)cc1 | inconclusive: 89%
COc1ccc2c(c1)c1ncn(Cc3ccco3)c(=O)c1n2C | inconclusive: 91%
CCC(=O)NC(C)c1nc2ccccc2n1C (stereo not given) | inconclusive: 102%
CCCCn1nc2cc(C(=O)NCc3ccc(OC(F)(F)F)cc3)ccc2c1OC | inconclusive: 107%
CCc1ccc(C(=O)COC(=O)c2cnc(C)cn2)cc1 | inconclusive: 95%
O=C(CSc1ncnc2ccccc12)NCc1ccc2c(c1)OCO2 | inactive: 96%
CC(C)C(=O)Nc1ccc(NC(=S)NC(=O)c2cc3ccccc3o2)cc1 | inconclusive: 98%
CCOC(=O)C1=NOC2C(=O)N(c3ccc(Cl)cc3Cl)C(=O)C12 (stereo not given) | inconclusive: 91%
CCS(=O)(=O)Nc1cccc(-c2ccc3nnc(C)n3n2)c1 | inconclusive: 93%
CCOc1ccccc1C(=O)Nc1cccc(-c2ccc3nncn3n2)c1 | active: 75%
Cc1ccc(CCNC(=O)CN(C)S(=O)(=O)c2cnc[nH]2)cc1 | inconclusive: 102%
O=C1CSC(c2ccccn2)N1c1ccc(F)cc1F (stereo not given) | inactive: 100%
CC(=O)c1cn(CC(=O)NCC2CCCO2)c2ccccc12 (stereo not given) | inconclusive: 94%
COc1cc(/C=N/Nc2nnc3c(n2)[nH]c2ccccc23)ccc1O | active: 79%
COc1ccc(C(=O)Nn2c(SCC(=O)c3ccccc3)nc3ccccc3c2=O)cc1 | inconclusive: 72%
CCN(CC)C(=O)c1ccccc1NC(=O)c1ccccc1C | inactive: 102%

Structure (SMILES) | GTP binding activity
COc1ccc(C2=Nc3cccc4cccc(c34)N2)cc1 | inconclusive: 104%
CCCCCSc1nc2c(cnn2-c2ccccc2)c(=O)[nH]1 | inconclusive: 95%
COc1ccc(-n2c(C)cc(C(=O)Cn3nc(C(=O)O)c4ccccc4c3=O)c2C)cc1 | inactive: 81%
Cc1ccc2oc(=O)c3cc(C(=O)Nc4cc(-c5cccc(F)c5)no4)sc3c2c1 | inactive: 96%
CCC(C)NS(=O)(=O)c1ccc(OCC(=O)NCc2ccccn2)cc1 (stereo not given) | inconclusive: 97%
Clc1ccc(-c2ccc(/C=N/Nc3nncc(-c4ccccc4)n3)o2)cc1 | inactive: 96%
CC(C)(C)NC(=O)Cn1nnc(-c2ccccc2Cl)n1 | inconclusive: 98%
Cc1cc(C(=O)Nc2cccc(S(=O)(=O)N3CCCCC3)c2)c2ccccc2n1 | inactive: 100%
COC(=O)c1cccc(Nc2cc(C)nc(-c3ccccc3O)n2)c1 | inconclusive: 75%
NC(=O)c1nnsc1Sc1c(C(N)=O)nnn1-c1cccc(N)c1 | inactive: 95%
O=C(O)CCc1ccc(-c2ccccc2)n1NC(=O)c1ccco1 | inconclusive: 105%
Cc1cccc(Cc2c(C)nc3nc(SCC(=O)O)nn3c2C)c1 | active: 74%
CCn1c(COc2cccc(C)c2)nnc1SCC(=O)N1CCCC1 | inconclusive: 103%
O=C(Cn1ccc([N+](=O)[O-])n1)Nc1ccccn1 | inactive: 99%
Brc1ccc(/C=N/Nc2ccc3ccccc3n2)cc1 | inconclusive: 89%
Cc1cccc(NC(=O)NC(=O)c2ccccc2)n1 | inconclusive: 92%
COc1cc(C(=O)NCc2nnc(SCC(=O)N3CCCCC3)o2)cc(OC)c1OC | inconclusive: 102%
O=C(NC1(C(F)(F)F)NC(=O)N(Cc2cccnc2)C1=O)c1cccs1 (stereo not given) | inconclusive: 107%
O=c1c2ccccc2nc2c3ccccc3c(NCCN3CCOCC3)nn12 | inconclusive: 75%
Fc1ccc(NC(=S)Nc2ccccc2N2CCOCC2)cc1Cl | inactive: 98%
CN(C(=O)COC(=O)c1cc(NS(=O)(=O)c2cc([N+](=O)[O-])ccc2Cl)ccc1O)C1CCCCC1 | inactive: 92%
CCCNS(=O)(=O)/C=C/c1ccccc1 | inconclusive: 96%
CC1CCN(C(=O)/C=C/c2ccc(C(C)(C)C)cc2)CC1 | inactive: 98%
CCCCN1C2=NCCCN2c2cc(C)c(C)cc21 | inconclusive: 98%

Structure (SMILES) | GTP binding activity
CCc1ccc(CN(C)C(=O)CCc2nnc(COc3ccccc3)o2)cc1 | inactive: 94%
O=C(CNC(=O)c1ccco1)OCC(=O)c1ccc(Cl)cc1Cl | inconclusive: 95%
Cc1ccc(C(=O)c2ccccc2C(=O)OCC(=O)NC(C)(C)C)cc1 | inactive: 94%
CC(C)N1CCN(CC#Cc2ccccc2)CC1CCO (stereo not given) | inactive: 99%
COc1ccc(-c2c3c(nc4sc5c(=O)[nH]c(C)nc5c24)CCC3)cc1 | active: 76%
COc1cccc(N2CCN(C(=O)c3cccn4c(=O)c5c(C)c(C)sc5nc34)CC2)c1 | inconclusive: 76%
Cc1cc(N2CCCC2=O)cc(C)c1S(N)(=O)=O | inconclusive: 101%
CCN(CC)c1ccc(/C=N/OCC(=O)Nc2cccc(C)c2)cc1 | inconclusive: 134%
CCOc1cc(C(=O)NC)cc(Br)c1OCc1ccccc1 | inconclusive: 90%
COc1ccc(-n2c(=S)[nH]c3c(oc4ccccc43)c2=O)cc1 | inactive: 94%
COc1ccc(Nc2nnc(SCC(=O)N3CC(=O)Nc4ccccc43)s2)cc1 | inconclusive: 92%
Cc1nn(C)cc1CNC(=O)C1C2CCC(O2)C1C(=O)O (stereo not given) | inactive: 100%
COc1cccc(-n2nnnc2S(C)(=O)=O)c1 | inactive: 85%
CCCOc1ccc(N2C(=O)CC(SCc3nc4ccccc4[nH]3)C2=O)cc1 (stereo not given) | inactive: 100%
Nc1nonc1C(=O)NCCN=Cc1cc(Cc2ccccc2)cc(Br)c1O | active: 122% [activator]
CCOC(=O)N1CCN(C(=O)CSCc2ccccc2Cl)CC1 | inactive: 100%
CC(C)(C)CC(=O)NC(=S)NCc1ccco1 | inactive: 103%
CCc1c(C)sc(NC(=O)CC#N)c1C#N | inconclusive: 86%
Clc1ccc2c(N/N=C/c3ccccc3Br)ccnc2c1 | inconclusive: 101%
Cc1nn(-c2ccccc2)c(Cl)c1C1C(C#N)=C(N)OC2=C1C(=O)CCC2 (stereo not given) | inconclusive: 102%
CCN(CC)S(=O)(=O)c1cc(C(=O)Nc2cc(Cl)ccc2N2CCN(C)CC2)ccc1Cl | inconclusive: 102%
CCOC(=O)CN(C(=O)CSc1nnc2c(n1)[nH]c1ccc(OC)cc12)c1ccc(F)cc1 | inconclusive: 73%
O=C(CSc1ccc2nnc(-c3cccs3)n2n1)N1CCCC1 | inactive: 85%
